Experimental data taken from patent US20100169988A1 (published 2010).

Legend:
APP-TAP-AICD [1] = target: T1, APP-TAP-AICD (human, UniProt P05067); test: streptavidin purification of APP-TAP-AICD from brain homogenate; LTQ-FT semiquantitative method, transgenic mouse 75 vs control mouse 72
APP-TAP-AICD [2] = target: T1, APP-TAP-AICD; test: streptavidin purification of APP-TAP-AICD from brain homogenate; iTRAQ 116/114, transgenic mouse 75 vs control mouse 72; MALDI-TOF/TOF;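 note: relative protein abundance in the transgenic versus control pull-down, limited to proteins with high quality scores and above-average enrichment, without full normalization across the whole measurement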

probability that this protein is enriched (APP-TAP-AICD [1]) | iTRAQ ratio (APP-TAP-AICD [2]) | Binder
0.88 |  | Hemoglobin, beta adult major chain (13 days embryo liver cDNA, RIKEN clone 2500004H04 product) (other, mouse, UniProt P02088 2-147, looked up, also called Q9CY54_MOUSE) VHLTDAEKAAVSCLWGKVNSDEVGGEALGRLLVVYPWTQRYFDSFGDLSSASAIMGNAKVKAHGKKVITAFNDGLNHLDSLKGTFASLSELHCDKLHVDPENFRLLGNMIVIVLGHHLGKDFTPAAQAAFQKVVAGVATALAHKYH
 | 5.96 | Hemoglobin alpha chain (other, mouse, UniProt P01942 2-142, looked up) VLSGEDKSNIKAAWGKIGGHGAEYGAEALERMFASFPTTKTYFPHFDVSHGSAQVKGHGKKVADALASAAGHLDDLPGALSALSDLHAHKLRVDPVNFKLLSHCLLVTLASHHPADFTPAVHASLDKFLASVSTVLTSKYR
